Among the data in the RNAGym collection of RNA variant scans (doi:10.1101/gad.245936.114) are nonsense suppression values, retold here.

Variants at the background level are over-represented here. Some results are limits rather than exact numbers.

First the molecules themselves.
B1: tRNA (parent)
chain: CUCUCGGUAGCCAAGUUGGUUUAAGGCGCAAGACUUUAAUUUAUCACUACGAAAUCUUGAGAUCGGGCGUUCGACUCGCCCCCGGGAGAUUUUUUCCUCGAGCAA

This data set covers variants of B1. The data set is described as follows: nonsense suppression (GFP-seq) (ratio to wild type); higher = more function; SUP4oc tRNA, yeast GFP reporter sort-seq. The method in brief:
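Yeast were grown in raffinose/galactose medium with 80 mg/L adenine, each strain bearing a genome-integrated ochre-suppressor tRNA variant from a ~3% random-mutation library, a galactose-driven GFP ochre reporter, and RFP. After sorting into GFP/RFP bins, every bin was sequenced on an Illumina platform at phred ≥30. The GFPSEQ value, a measure of nonsense suppression, is the weighted bin median GFP/RFP relative to the unmutated parent tRNA, using each variant's estimated cell share per bin as the weight. Only variants with ≥100 reads and ≥30 cells were included.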
Turning to C34U G65U C82A G84U, the nonsense suppression is not above 0.026.

Turning to U2A U8G U22G, the nonsense suppression was not above 0.026.

As to A23U A30C G61A U76G G85U, the nonsense suppression is not above 0.026.

On to C12A A30G, for which the nonsense suppression was not above 0.026.

For U57G G69C C72A, the nonsense suppression is not above 0.026.

As to U2A G6A, the nonsense suppression was not above 0.026.

For G78A A87U, the nonsense suppression is 0.032.

For the variant A9G G78U, the nonsense suppression is not above 0.026.

Consider A62G U76A, for which the nonsense suppression is not above 0.026.

For U16G U35G G66C G69U C79U, the nonsense suppression is not above 0.026.

In the case of A9U A24C G59U C64A, the nonsense suppression is not above 0.026.

As for A23G C29U A74C, the nonsense suppression was not above 0.026.

G65A C75A: the nonsense suppression worked out at 0.109.

Turning to U21C A31G, the nonsense suppression worked out at 1.

On to G15U U16A A30U, for which the nonsense suppression is not above 0.026.

Take A23G A62C: the nonsense suppression is not above 0.026.

For the variant U2G A13G, the nonsense suppression was not above 0.026.

For G7C A33G G78A, the nonsense suppression was not above 0.026.

As for U76A C80U, the nonsense suppression came to 0.0419.

In the case of U57G C68G C75G, the nonsense suppression was not above 0.026.

For C27U G59U C81U, the nonsense suppression was not above 0.026.

In the case of U21G A30U, the nonsense suppression is not above 0.026.

As for A14G C80G, the nonsense suppression is not above 0.026.

On to C11U G18A C64G, for which the nonsense suppression is not above 0.026.

For U4A U16G, the nonsense suppression was 0.247.

G7A A33G: the nonsense suppression is not above 0.026.

Consider U2A G15U A24C U63A G67A G73C, for which the nonsense suppression is not above 0.026.

Turning to C56A C82A, the nonsense suppression was not above 0.026.

Regarding G10C A62U G67A G73A, the nonsense suppression was not above 0.026.

With U63C G67C U70A, the nonsense suppression was not above 0.026.

G7U A13U: the nonsense suppression is not above 0.026.

For the variant C11A C29U, the nonsense suppression is not above 0.026.

Regarding A14C A62C G67U, the nonsense suppression is not above 0.026.

U58G G65C: the nonsense suppression is not above 0.026.

As to A9G C34U G65A, the nonsense suppression was not above 0.026.

G18U G61A G85A: the nonsense suppression was not above 0.026.

Take G15C U70A: the nonsense suppression was not above 0.026.

Consider U2C G86C, for which the nonsense suppression is not above 0.026.

C34A U70C C81G: the nonsense suppression is not above 0.026.

For C34G G59U G65U, the nonsense suppression was not above 0.026.

For the variant A30U U55A, the nonsense suppression is not above 0.026.

Turning to C68A U71A, the nonsense suppression is not above 0.026.

As for G59A G61C G65A G67A G78A A89C, the nonsense suppression was not above 0.026.

On to U4G A60U, for which the nonsense suppression stood at 1.12.

As for G7C G15C G26C G78C G88C, the nonsense suppression was not above 0.026.

For U17A C56G A60U U76C, the nonsense suppression was not above 0.026.

Regarding C11G C29U C80G C83A A89U, the nonsense suppression was not above 0.026.

Take G7C U71G C79U C83A: the nonsense suppression was not above 0.026.

In the case of G10U A14U, the nonsense suppression worked out at 0.19.

U8G G10U: the nonsense suppression was not above 0.026.

In the case of A9C C75A G88A, the nonsense suppression was not above 0.026.

For the variant G10U A23U G61A, the nonsense suppression is not above 0.026.

Consider G18C C72G, for which the nonsense suppression is not above 0.026.

For G59A U76G C77A, the nonsense suppression is not above 0.026.

Take U21A A54C U70G C77U C82U G88C: the nonsense suppression was not above 0.026.

Consider C29G G78C, for which the nonsense suppression is not above 0.026.

For the variant A24C U71C, the nonsense suppression came out at 0.0704.

On to C64A U71A U76G C77A, for which the nonsense suppression is not above 0.026.

As to G67C C81A, the nonsense suppression was not above 0.026.

Take C11U C34G: the nonsense suppression is not above 0.026.

For the variant A9G U22A U35G, the nonsense suppression was not above 0.026.

As for U17A C29U U76G G78C, the nonsense suppression was not above 0.026.

As for C11G G32A, the nonsense suppression is not above 0.026.

For the variant U16G U17A G19A C27A, the nonsense suppression is not above 0.026.

Regarding G67A C75G, the nonsense suppression was determined as 0.194.

For U22C G59U, the nonsense suppression was not above 0.026.

Turning to C80U G88C, the nonsense suppression was not above 0.026.

For G25C U57C A62C, the nonsense suppression was not above 0.026.

Regarding C68A A74C, the nonsense suppression was not above 0.026.

For the variant U16C G25C U57A G84A, the nonsense suppression was not above 0.026.

With A13C G28A, the nonsense suppression turned out to be 1.08.

As to U4A U22C A31U A33G, the nonsense suppression was not above 0.026.

On to U2G C64G, for which the nonsense suppression is not above 0.026.

Take A14G U21G A54G U70C: the nonsense suppression was not above 0.026.

On to U4C C77G C81A, for which the nonsense suppression is not above 0.026.

Take U2A C56A G67A: the nonsense suppression is not above 0.026.

With C12G U22C U35G, the nonsense suppression is not above 0.026.

On to G15U G65C C80G, for which the nonsense suppression is not above 0.026.

As for U58C G61U U63C, the nonsense suppression was not above 0.026.

U2G C11U G59U: the nonsense suppression is not above 0.026.

Turning to G6U C27G G61C, the nonsense suppression is not above 0.026.

Regarding A31U U58C G59U A89U, the nonsense suppression is not above 0.026.

As for U8C U21G, the nonsense suppression was found to be 0.0903.

Regarding U2C G6C A24G, the nonsense suppression is not above 0.026.

As to C5U A62U, the nonsense suppression is not above 0.026.

For G25C G78A C81A, the nonsense suppression is not above 0.026.

As for U4C G15C C77U, the nonsense suppression was not above 0.026.

With G15U G28U, the nonsense suppression was not above 0.026.

G6A U16C G59C: the nonsense suppression is not above 0.026.

Turning to U22C C82G G86A G88C, the nonsense suppression was not above 0.026.

Take C3G A23C C34U U76G: the nonsense suppression is not above 0.026.

As for C12A C56A, the nonsense suppression was not above 0.026.

Consider A9C G66A G88C, for which the nonsense suppression is not above 0.026.

Regarding C27G C34G C68A, the nonsense suppression is not above 0.026.

For C27G A87G, the nonsense suppression is 0.0273.

As for U20C G65A, the nonsense suppression was not above 0.026.

C11A A31C A87C: the nonsense suppression is not above 0.026.

For the variant A24C C29G A60G G65C, the nonsense suppression was not above 0.026.

For C5U C64G C80U, the nonsense suppression was not above 0.026.

Consider A9C G19A C82A C83A, for which the nonsense suppression is not above 0.026.

For A14G C81U, the nonsense suppression was not above 0.026.

For the variant U2A C11U C12U, the nonsense suppression is not above 0.026.

A23G G26C U76G C79U G84U: the nonsense suppression is not above 0.026.

For the variant A31C G85C, the nonsense suppression was not above 0.026.

Turning to U2G U17C C34U, the nonsense suppression is not above 0.026.

Take A24C G65U C75G G85U: the nonsense suppression was not above 0.026.

As for G59A A87C, the nonsense suppression was not above 0.026.

As for U4G U70A U71G, the nonsense suppression is not above 0.026.

C1G A9U C29A C83U: the nonsense suppression was not above 0.026.

In the case of G10C A30C G66U, the nonsense suppression is not above 0.026.

Take U58C A60C U63A: the nonsense suppression was not above 0.026.

Consider A31U A60C G66C U70A G85A, for which the nonsense suppression was not above 0.026.

Take G78A C82G: the nonsense suppression worked out at 0.0423.

Turning to G78A G86C A89C, the nonsense suppression is not above 0.026.

For C56A A87G, the nonsense suppression was not above 0.026.

Take A13G C34G: the nonsense suppression was not above 0.026.

On to A14U C75G U76C G84C, for which the nonsense suppression was not above 0.026.

U20C A30U C79G G88A: the nonsense suppression was not above 0.026.

Consider C34A U55C G66A, for which the nonsense suppression was not above 0.026.

Consider U20G A23U A31C, for which the nonsense suppression was not above 0.026.

U2C G15U G28U A31C: the nonsense suppression was not above 0.026.

For the variant G66A G69C, the nonsense suppression was not above 0.026.

For the variant A14U U63G G86U, the nonsense suppression was not above 0.026.

Take C29U A31U A60G C68U U70G: the nonsense suppression was not above 0.026.

Take A23C G65C: the nonsense suppression was not above 0.026.

On to U8G U17G G69U C80G, for which the nonsense suppression is not above 0.026.

With A14U C27G G32U U55A G67C C81G, the nonsense suppression is not above 0.026.

In the case of G25A G69C U76A, the nonsense suppression was not above 0.026.

Take A14G G61A U70A A89U: the nonsense suppression was not above 0.026.

Consider U4G A9U C27A U35C, for which the nonsense suppression was not above 0.026.

With A31C C81A, the nonsense suppression is not above 0.026.

As to U2G C3U A33G, the nonsense suppression is not above 0.026.

On to U4G U17A G84A, for which the nonsense suppression is not above 0.026.

For the variant A9C A74C, the nonsense suppression is not above 0.026.

G28A G86C: the nonsense suppression is not above 0.026.

Turning to A24C U63C, the nonsense suppression worked out at 0.205.

Regarding A54C U63A, the nonsense suppression came to 0.377.

Turning to U8G A31C U57G G88A, the nonsense suppression is not above 0.026.

For the variant U16C U21C, the nonsense suppression is 1.03.

On to C1U A24C U55G G66C C77U G85U, for which the nonsense suppression was not above 0.026.

Turning to C11A G18A G26U, the nonsense suppression was not above 0.026.

For A60G G85A, the nonsense suppression turned out to be 1.16.

Regarding U70G C81G, the nonsense suppression is not above 0.026.

For the variant U16G U55G G88C, the nonsense suppression is not above 0.026.

Consider U17A U21G C64U, for which the nonsense suppression was not above 0.026.

In the case of A13U U55C G59U, the nonsense suppression is not above 0.026.

As to C3U C34A U58G U70C G88A A89C, the nonsense suppression is not above 0.026.

Consider C1U U2C G26A A54U C79A C82G, for which the nonsense suppression is not above 0.026.

G19A C56U G66A C68G: the nonsense suppression was not above 0.026.

As to A13U A62C U71A C79A A87G, the nonsense suppression is not above 0.026.

Regarding A9U U76A, the nonsense suppression is not above 0.026.

As for C34U C82A, the nonsense suppression was not above 0.026.

Regarding G25U G61C C81U, the nonsense suppression was not above 0.026.

C27G G67C G86C: the nonsense suppression is not above 0.026.

For the variant C11A U57C, the nonsense suppression is not above 0.026.

Regarding G26A C34A U70G, the nonsense suppression is not above 0.026.

For A33C G67U, the nonsense suppression was not above 0.026.

Consider C1U A24C U55G G66C C77G G85U, for which the nonsense suppression is not above 0.026.

With A9G G15A U16A A62C U70G A74C, the nonsense suppression is not above 0.026.

Regarding U4G C29U U71G, the nonsense suppression is not above 0.026.

For the variant U55C A60U G69U, the nonsense suppression is not above 0.026.

With U8C A14U A60C, the nonsense suppression is not above 0.026.

Turning to A23C G32C C34G G59U, the nonsense suppression was not above 0.026.

U4G U71A G73U C80A A87C: the nonsense suppression is not above 0.026.

Take A9U A24G: the nonsense suppression came out at 0.0422.

With C5U A23C G73A, the nonsense suppression was not above 0.026.

With U63A G73U C82A, the nonsense suppression was not above 0.026.
